PubChem BioAssay AID904 (National Center for Advancing Translational Sciences (NCATS), 2007)
The campaign covered roughly 55,000 compounds. About 530 (0.96%) were called active. Inconclusive results, whose numbers are uncertain, are shown with a selection of clear calls. Calls come from the whole dose curve; as a rule, active = well fitted cell-killing curve with a large enough effect; inconclusive = small, poorly fitted or top-dose-only effect; inactive = no such curve, though single readings can be large or run the other way. Where the call is inconclusive, the potency comes from a doubtful curve fit.

Assay: qHTS Screen for Compounds that Selectively Target Cancer Cells with p53 Mutations: Cytotoxicity of p53 Null Cells at the Nonpermissive Temperature; note: nearly all actives have a fitted effect of over 50% in size;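 for activity, negative = cell killing: 0% = DMSO only and -100% = full killing by 100 µM tamoxifen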
Settings: H1299 p53-null (neo) cells, 39C, ATPlite viability, 24 h; activity, negative = cell killing: at 46.1 µM (top of the series)
How it was run: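 Following overnight plating at 37C (600 cells/well), H1299-neo or H1299-p53A138V cells are dosed up to 46 uM. Incubation lasts 24 hr at 39C before ATP detection.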
Potency is the fitted concentration of half-maximal effect; tags give direction and shape of the fitted curve.

**Q.** For `CCOc1ccc(C(=O)Nc2cccc(NC(=O)c3ccc(Cl)cc3Cl)c2)cc1`, which activity, negative = cell killing is on record?
**A.** Its activity, negative = cell killing is inconclusive: -31.8% [cytotoxic].

**Q.** With `O=C(Nc1nc2ccccc2s1)c1ccc(OCC2CCCO2)cc1` (stereo not drawn) as the compound, how does the Potency read?
**A.** The Potency was inconclusive: 11.2 µM [cytotoxic, partial curve].

**Q.** Which Potency does the source give for `CCCCNC(=O)CCn1nc(-c2ccc(Cl)cc2)c2ccccc2c1=O` here?
**A.** Its Potency is inconclusive: 0.02 µM [cytotoxic, full curve, poor fit].

**Q.** Which “activity, negative = cell killing” value does the source give for `COc1cc(OC)c(NC(=O)CC(C)S(=O)(=O)c2ccc3c(c2)NC(=O)CO3)cc1Cl` (stereo not drawn) here?
**A.** The value was inactive: -19.7%.

**Q.** With `COc1ccc(NC(=O)c2cccn2-c2nnc(N3CCCCC3)s2)c(OC)c1` as the compound, how does the Potency read?
**A.** Its Potency is inconclusive: 20 µM [cytotoxic, partial curve, poor fit].

**Q.** For `CS(=O)(=O)Nc1ccc(-c2nc3ccccc3s2)cc1`, which Potency is on record?
**A.** The Potency was active: 1.58 µM.

**Q.** With `COC(=O)c1ccc2c(=O)n(CCCCCC(=O)N3CCN(c4cc(C)ccc4C)CC3)c(=O)[nH]c2c1` as the compound, how does the Potency read?
**A.** The Potency was inconclusive: 31.6 µM [cytotoxic, single point].

**Q.** Which Potency does the source give for `c1ccc2oc(-c3ccc4nc[nH]c4c3)nc2c1` here?
**A.** The Potency was inconclusive: 12.6 µM [cytotoxic, partial curve].

**Q.** With `Cc1nn(-c2ccccc2)c2sc(C(=O)Nc3cccc(Cl)c3)cc12` as the compound, how does the Potency read?
**A.** The Potency was inconclusive: 10 µM [cytotoxic, partial curve, poor fit].

**Q.** For `CCc1ccccc1NC(=O)c1ccc(Cn2nc(N3CCN(c4ccccc4)CC3)ccc2=O)o1`, which “activity, negative = cell killing” value is on record?
**A.** Its value is inactive: 5.63%.

**Q.** Which “activity, negative = cell killing” value does the source give for `Cc1ccc(NC(=O)Nc2cn(C)c(=O)c3ccccc23)c(Cl)c1` here?
**A.** The value was inactive: -2.07%.

**Q.** For `C=CCc1ccccc1OCc1nc2ccc(C)cc2[nH]1`, which Potency is on record?
**A.** The Potency was inconclusive: 17.8 µM [cytotoxic, single point].

**Q.** With `Fc1ccc(CSc2nncn3c2cc2occc23)c(Cl)c1` as the compound, how does the Potency read?
**A.** The Potency was inconclusive: 35.5 µM [cytotoxic, single point].

**Q.** Which Potency does the source give for `Cc1ccc(NC(=O)CN2C(=O)COc3ccc(S(=O)(=O)N4CCOCC4)cc32)cc1N(C)C` here?
**A.** The Potency was inconclusive: 0.01 µM [cytotoxic, full curve, poor fit].

**Q.** For `CCCCCOc1ccccc1CN1C(=O)C(=O)c2cc(C)ccc21`, which Potency is on record?
**A.** The Potency was inconclusive: 15.8 µM [cytotoxic, single point].

**Q.** Which Potency does the source give for `CCCNC(=O)C1CCN(C(=O)N2CC(C)Oc3ccccc32)CC1` (stereo not drawn) here?
**A.** The Potency was inconclusive: 6.31 µM [cytotoxic, partial curve].

**Q.** With `COC(=O)c1ccc(Nc2nc(-c3ccccc3Cl)nc3ccccc23)cc1` as the compound, how does the Potency read?
**A.** Its Potency is inconclusive: 15.8 µM [cytotoxic, partial curve, poor fit].

**Q.** Which activity, negative = cell killing does the source give for `Cc1ccc(Cn2c(CO)cnc2SCC(=O)NCc2ccccc2Cl)cc1` here?
**A.** The activity, negative = cell killing was inconclusive: -36.2% [cytotoxic].

**Q.** Which Potency does the source give for `COc1ccc(-c2cc(C)no2)cc1S(=O)(=O)N1CCOc2ccc(Cl)cc21` here?
**A.** Its Potency is inconclusive: 20 µM [cytotoxic, single point].

**Q.** Which Potency does the source give for `COc1ccc(Nc2cc(C(=O)NCCCN(C)C3CCCCC3)c3ccccc3n2)c(OC)c1` here?
**A.** Its Potency is inconclusive: 14.1 µM [cytotoxic, single point].

**Q.** With `COc1ccc(C2CC(=O)N(CC(=O)Nc3ccc(C(C)=O)cc3)c3ccccc3S2)cc1OC` (stereo not drawn) as the compound, how does the Potency read?
**A.** The Potency was inconclusive: 31.6 µM [cytotoxic, single point].

**Q.** For `CC1=Nc2cc(C(=O)N3CCCCC3)ccc2Sc2ccc(C)cc21`, which “activity, negative = cell killing” value is on record?
**A.** Its value is inactive: -3.9%.

**Q.** Which Potency does the source give for `Cc1cccc(N2CCN(c3ncnc4c3cnn4-c3ccc(Cl)cc3)CC2C)c1` (stereo not drawn) here?
**A.** The Potency was inconclusive: 31.6 µM [cytotoxic, single point].

**Q.** For `CCOC(=O)c1ccc(Nc2nc3ccccc3n3c(C)nnc23)cc1`, which Potency is on record?
**A.** Its Potency is inconclusive: 0.501 µM [cytotoxic, full curve, poor fit].

**Q.** For `COc1ccc(-c2nc(CNC(=O)NC3CCCCC3)c(C)o2)c(OC)c1`, which Potency is on record?
**A.** The Potency was inconclusive: 0.0398 µM [cytotoxic, full curve, poor fit].

**Q.** Which Potency does the source give for `Cc1ccc(C(=O)c2sc(Nc3ccc(F)cc3)nc2N)c(C)c1` here?
**A.** Its Potency is inconclusive: 35.5 µM [cytotoxic, single point].

**Q.** For `COc1ccccc1C(=O)NC1=NC(c2ccc(Br)cc2)CC(=O)N1` (stereo not drawn), which Potency is on record?
**A.** Its Potency is inconclusive: 20 µM [cytotoxic, partial curve, poor fit].

**Q.** Which “activity, negative = cell killing” value does the source give for `Cc1nnc(NC(=O)C(=O)c2cc(C)n(-c3ccc(C)c(C)c3)c2C)s1` here?
**A.** Its value is inactive: -0.121%.

**Q.** For `O=c1oc2ccccc2cc1-c1cn2cc(Cc3ccccc3F)sc2n1`, which Potency is on record?
**A.** Its Potency is inconclusive: 0.0891 µM [cytotoxic, full curve, poor fit].

**Q.** For `CC1CCc2c(sc(NC(=O)c3cc(-c4ccc(F)cc4)on3)c2C(N)=O)C1` (stereo not drawn), which Potency is on record?
**A.** Its Potency is inconclusive: 6.31 µM [cytotoxic, single point].

**Q.** Which Potency does the source give for `CC1=Nc2cc(C(=O)NC(C)C)ccc2Sc2ccc(C)cc21` here?
**A.** The Potency was inconclusive: 1.26 µM [cytotoxic, full curve, poor fit].

**Q.** With `O=c1oc2ccccc2cc1-c1cn2cc(Cc3ccc(Br)cc3)sc2n1` as the compound, how does the Potency read?
**A.** Its Potency is inconclusive: 0.126 µM [cytotoxic, full curve].

**Q.** Which Potency does the source give for `Cc1cc(C)cc(-n2ccn(Cc3ccc(F)cc3)c(=O)c2=O)c1` here?
**A.** The Potency was inconclusive: 0.0251 µM [cytotoxic, full curve, poor fit].

**Q.** With `Cc1ccc(Cl)cc1NC(=O)C1CCN(c2nc3ccccc3n3cccc23)CC1` as the compound, how does the Potency read?
**A.** Its Potency is inconclusive: 35.5 µM [cytotoxic, single point].

**Q.** For `CCOC(=O)c1ccc(NC(=O)c2nc(SCc3ccccc3F)ncc2Cl)cc1`, which “activity, negative = cell killing” value is on record?
**A.** The value was inactive: -7.35%.

**Q.** With `COc1cccc(-n2cc(C(=O)Nc3cc(C)c(Cl)cc3OC)c3ccccc3c2=O)c1` as the compound, how does the “activity, negative = cell killing” value read?
**A.** Its value is inactive: -2.96%.

**Q.** Which Potency does the source give for `CCc1ccccc1NC(=O)Nc1cc(C(=O)NCc2ccc(OC)cc2)ccc1N1CCCC1` here?
**A.** The Potency was inconclusive: 7.94 µM [cytotoxic, partial curve].

**Q.** For `Clc1ccc(CNc2cc(-c3ccccc3)nc3nncn23)cc1`, which Potency is on record?
**A.** The Potency was inconclusive: 31.6 µM [cytotoxic, single point].

**Q.** With `COc1cc2nc(Nc3ccc(F)cc3)nc(N)c2cc1OC` as the compound, how does the Potency read?
**A.** Its Potency is inconclusive: 22.4 µM [cytotoxic, partial curve, poor fit].

**Q.** With `Cc1ccc(C)c(Nc2nc3nonc3nc2Nc2cccc(C)c2C)c1` as the compound, how does the Potency read?
**A.** Its Potency is inconclusive: 12.6 µM [cytotoxic, partial curve].

**Q.** With `COc1ccc(-c2cc(C(F)(F)F)nc(SCCC(=O)Nc3cccc(O)c3)n2)cc1` as the compound, how does the Potency read?
**A.** The Potency was inconclusive: 35.5 µM [cytotoxic, single point].

**Q.** Which activity, negative = cell killing does the source give for `Cc1ccc(S(=O)(=O)c2nc(S(=O)(=O)c3ccc(C)cc3)c(NC(C)C)s2)cc1` here?
**A.** The activity, negative = cell killing was inconclusive: -32.9% [cytotoxic].

**Q.** With `CCc1cccc(C)c1NC(=O)C(CC)n1ncn2c(cc3cc(C)ccc32)c1=O` (stereo not drawn) as the compound, how does the Potency read?
**A.** Its Potency is inconclusive: 0.005 µM [cytotoxic, full curve, poor fit].

**Q.** For `Cc1ccc(-c2noc(CSc3nnc(C)n3-c3ccc(C)cc3)n2)cc1`, which Potency is on record?
**A.** Its Potency is inconclusive: 15.8 µM [cytotoxic, partial curve, poor fit].

**Q.** For `O=c1cc(CN2CCN(S(=O)(=O)c3ccccc3)CC2)nc2sc(-c3ccccc3Cl)nn12`, which activity, negative = cell killing is on record?
**A.** Its activity, negative = cell killing is inconclusive: -30.2% [cytotoxic].

**Q.** With `Cc1ccccc1NC(=O)c1c(NC(=O)C(F)(F)F)sc2c1CCCCC2` as the compound, how does the Potency read?
**A.** Its Potency is inconclusive: 2.24 µM [cytotoxic, full curve].

**Q.** For `Cc1ccc(CNC(=O)c2cn(C)c3ccc(S(=O)(=O)N4CCOCC4)cc3c2=O)cc1`, which Potency is on record?
**A.** The Potency was inconclusive: 12.6 µM [cytotoxic, single point].

**Q.** Which “activity, negative = cell killing” value does the source give for `CCOc1ccccc1Nc1sc(C(=O)c2ccc(Cl)cc2)c(N)c1C(=O)NCCc1ccccc1` here?
**A.** The value was inactive: -20.3%.

**Q.** With `Brc1ccc(CN2CCc3nc(N4CCN(c5ncccn5)CC4)ncc3C2)cc1` as the compound, how does the Potency read?
**A.** The Potency was inconclusive: 35.5 µM [cytotoxic, single point].

**Q.** Which Potency does the source give for `O=S(=O)(Nc1cccc(-c2ccc(N3CCOCC3)nn2)c1)c1ccccc1C(F)(F)F` here?
**A.** The Potency was inconclusive: 7.08 µM [cytotoxic, partial curve, poor fit].

**Q.** For `COc1ccc(NC(=O)C(=O)NCC(c2cccnc2)N2CCc3ccccc3C2)cc1` (stereo not drawn), which Potency is on record?
**A.** Its Potency is active: 20 µM.

**Q.** For `Cc1cccc(OCC(=O)N(Cc2ccc(C(C)C)cc2)Cc2ccco2)c1C`, which Potency is on record?
**A.** Its Potency is inconclusive: 22.4 µM [cytotoxic, single point].

**Q.** With `COc1ccc(Cn2ccc3nc(C)c(C(=O)NCc4ccc(OC)cc4OC)cc3c2=O)cc1` as the compound, how does the Potency read?
**A.** The Potency was inconclusive: 1 µM [cytotoxic, full curve, poor fit].

**Q.** Which “activity, negative = cell killing” value does the source give for `COc1cccc(CNS(=O)(=O)c2ccc(N3CCCCS3(=O)=O)cc2)c1` here?
**A.** The value was inactive: -8.22%.

**Q.** With `Cn1c(CNc2nc(-c3ccccc3)cs2)nnc1SCC(=O)OC1CCCCC1` as the compound, how does the “activity, negative = cell killing” value read?
**A.** Its value is inactive: -6.29%.

**Q.** For `O=C(NCC1CCCO1)c1c[nH]c2ccc(S(=O)(=O)Nc3ccc(F)cc3F)cc2c1=O` (stereo not drawn), which “activity, negative = cell killing” value is on record?
**A.** Its value is inactive: -4.71%.

**Q.** For `O=C(c1cccc(F)c1)N1CCC(c2c[nH]c3ccccc23)(c2c[nH]c3ccccc23)CC1`, which Potency is on record?
**A.** The Potency was inconclusive: 5.01 µM [cytotoxic, full curve, poor fit].

**Q.** With `COc1ccc(NC(=O)Nc2cccc(-c3cn4cccnc4n3)c2)cc1` as the compound, how does the Potency read?
**A.** Its Potency is inconclusive: 3.98 µM [cytotoxic, full curve].

**Q.** For `O=C(CCCn1ccc2cc(S(=O)(=O)N3CCCC3)ccc21)NCc1ccc(Cl)cc1`, which Potency is on record?
**A.** Its Potency is inconclusive: 15.8 µM [cytotoxic, partial curve].

**Q.** Which Potency does the source give for `CCN(CC)CCCNC(=O)C(=O)Nc1ccc2nc3n(c(=O)c2c1)CCCCC3` here?
**A.** The Potency was inconclusive: 0.0316 µM [cytotoxic, full curve, poor fit].

**Q.** For `Cc1ccc(NC(=O)c2ccc3c(c2)NC(=O)c2ccccc2S3)cc1`, which Potency is on record?
**A.** Its Potency is inconclusive: 6.31 µM [cytotoxic, partial curve].

**Q.** Which Potency does the source give for `Cc1ccc(C(=O)Nc2ccccc2C(=O)OCc2cc(=O)n3nc(C4CC4)sc3n2)cc1` here?
**A.** The Potency was inconclusive: 0.0794 µM [cytotoxic, full curve].

**Q.** For `CCOC(=O)c1cc(-c2ccc(OC)cc2)n(CCC(=O)Nc2cccc(C(C)=O)c2)c1C`, which Potency is on record?
**A.** The Potency was inconclusive: 35.5 µM [cytotoxic, single point].
